Values joined by “and” are separate entries in the source; they are usually repeats but may differ in a detail not shown here. Identical values can stand only once. This list was built around the results that the source calls inconclusive (neither active nor inactive); the mix of calls is not that of the screen. Potencies of inconclusive entries are doubtful fits and often do not repeat. Active and inactive are the calls of the source. The call rests on the fitted dose curve; in most records, active means well fitted curve in the direction sought with a large enough effect; inconclusive means small, poorly fitted or top-dose-only effect, or another doubt; inactive means no such curve, though single readings can be large; an effect the other way counts as inactive or inconclusive.
How the values were obtained:
[1] = Viability qHTS for spleen associated tyrosine kinase inhibitor (SYKi) naive MV4-11 cells (AID 1963823); settings: MV4-11 AML viability, CellTiter-Glo luminescence, 72 h; series mostly up to 45 µM; further: nearly all actives have a fitted effect of over 40% in size
Outline: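 Cells: MV4-11, SYK inhibitor naive, 500 per well. Treatment: library compounds, 72 hr, 37 C, 5% CO2. Read-out: CellTiter-Glo luminescence after 10 min RT.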

[2] = Viability qHTS for spleen associated tyrosine kinase inhibitor (SYKi) drug resistant MV4-11 cells (AID 1963824); further: nearly all actives have a fitted effect of over 35% in size
Outline: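 CellTiter-Glo luminescence, read 10 min after reagent addition, reports viability after a 72 hr compound exposure. Cells are an MV4-11 line made resistant to SYK inhibition, seeded at 500 per well onto compound-containing plates.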

[3] = Cellular viability qHTS for adrenocortical cancer (ACC) cell line SW-13 (AID 1963989); settings: SW-13 ACC cells viability, CellTiter-Glo, 48 h; activity (max response): stronger effect = lower value; further: nearly all actives have a fitted effect of over 65% in size
Outline: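 SW-13 cells in ITS-supplemented serum-free DMEM were plated overnight, then exposed for 48 h at 37C to compound titrations (up to 46 uM final). Viability was read by CellTiter-Glo luminescence; four-parameter logistic fits gave IC50 and efficacy.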

[4] = Cellular viability qHTS for adrenocortical cancer (ACC) cell line NCI-H295R (AID 1963990); settings: CellTiter-Glo ATP luminescence, 48 h; series mostly up to 46.1 µM; further: nearly all actives have a fitted effect of over 60% in size
Outline: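 Luminescent ATP read-out (CellTiter-Glo, 20 min RT) after 48 h drug exposure of NCI-H295R cells; a titration up to 46 uM final. Data normalized to doxorubicin (100% inhibition) and DMSO (0%); 4-parameter fit gives IC50, max response.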
Potency means the concentration at half of the fitted maximal effect; tags describe the fitted curve by direction and shape.

Row | SMILES | Potency [1] | Potency [2] | Potency [3] | Potency [4]
1 | O=C(Nc1ccccc1)OCC(CN1CCCCC1)OC(=O)Nc1ccccc1 (centres undefined) | inconclusive: 18.8 µM [cytotoxic, single point] | inconclusive: 21.1 µM [cytotoxic, single point] | inconclusive: 29.1 µM [cytotoxic, single point] | active: 23.1 µM
2 | COCC(=O)O[C@]1(CCN(C)CCCc2nc3ccccc3[nH]2)CCc2cc(F)ccc2[C@@H]1C(C)C | active: 21.1 µM | active: 13.3 µM | inconclusive: 20.6 µM [cytotoxic, single point] | active: 16.4 µM
3 | CN(C)c1ccc(N=NS(=O)(=O)O)cc1 | inconclusive: 25.6 µM [cytotoxic, partial curve] | inconclusive: 20.4 µM [cytotoxic, partial curve] | inconclusive: 50.1 µM [cytotoxic, single point] | inconclusive: 56.2 µM [cytotoxic, single point]
4 | Cc1[nH]c(/C=C2\C(=O)Nc3ccccc32)c(C)c1CCC(=O)O | inconclusive: 5.8 µM [cytotoxic, partial curve] and inconclusive: 6.61 µM [cytotoxic, partial curve] | inconclusive: 9.2 µM [cytotoxic, partial curve] and inconclusive: 5.9 µM [cytotoxic, full curve] | inconclusive: 31.6 µM [cytotoxic, single point] | inconclusive: 25.1 µM [cytotoxic, partial curve, poor fit]
5 | CC(C)n1c(/C=C/[C@H](O)C[C@H](O)CC(=O)O)c(-c2ccc(F)cc2)c2ccccc21 | active: 2.63 µM | active: 1.32 µM | active: 17.8 µM | inconclusive: 3.55 µM [cytotoxic, full curve]
6 | Clc1ccccc1CN1CCc2sccc2C1 | inconclusive: 16.8 µM [cytotoxic, partial curve] and inconclusive: 26.3 µM [cytotoxic, partial curve, poor fit] | active: 18.8 µM and inconclusive: 26.3 µM [cytotoxic, partial curve] | inconclusive: 29.1 µM [cytotoxic, single point] | inconclusive: 29.1 µM [cytotoxic, single point]
7 | COC(=O)C1=C(C)NC(C)=C(C(=O)OCCN(C)Cc2ccccc2)C1c1cccc([N+](=O)[O-])c1 (centres undefined) | active: 11.9 µM | inconclusive: 13.3 µM [cytotoxic, partial curve, poor fit] | inconclusive: 18.4 µM [cytotoxic, single point] | inconclusive: 29.1 µM [cytotoxic, single point]
8 | CN(C/C=C/c1ccccc1)Cc1cccc2ccccc12 | inconclusive: 23.7 µM [cytotoxic, single point] | inactive | inconclusive: 29.1 µM [cytotoxic, single point] | inconclusive: 29.1 µM [cytotoxic, single point]
9 | CCCCCCc1ccc(O)cc1O | inconclusive: 4.73 µM [cytotoxic, partial curve] | inconclusive: 18.8 µM [cytotoxic, partial curve, poor fit] | inconclusive: 20.6 µM [cytotoxic, single point] | inconclusive: 20.6 µM [cytotoxic, single point]
10 | O=C1NC(=O)/C(=C/c2ccc3c(c2)OC(F)(F)O3)S1 | inconclusive: 29.5 µM [cytotoxic, partial curve] | inconclusive: 23.5 µM [cytotoxic, partial curve] | inconclusive: 15.8 µM [cytotoxic, partial curve] | inconclusive: 22.4 µM [cytotoxic, partial curve, poor fit]
11 | CN1CCN(c2nc(C3=C(c4c[nH]c5ccccc45)C(=O)NC3=O)c3ccccc3n2)CC1 | active: 206 nM and active: 833 nM | active: 461 nM and active: 2.35 µM | inconclusive: 31.6 µM [cytotoxic, single point] | inconclusive: 35.5 µM [cytotoxic, single point]
12 | CC1(C)OC[C@@H]2O[C@@]3(C(=O)O)OC(C)(C)O[C@H]3[C@@H]2O1 | inactive | inactive | inconclusive: 23.1 µM [cytotoxic, single point] | inactive
13 | COCCNCc1ccc(-c2cc3nccc(Oc4ccc(NC(=O)C5(C(=O)Nc6ccc(F)cc6)CC5)cc4F)c3s2)nc1 | inconclusive: 0.0021 µM [cytotoxic, full curve] | inconclusive: 0.0042 µM [cytotoxic, full curve] | active: 3.55 µM | active: 3.16 µM
14 | CC(C)NC(=O)COc1cccc(-c2nc(Nc3ccc4[nH]ncc4c3)c3ccccc3n2)c1 | inconclusive: 3.66 µM [cytotoxic, full curve] | inconclusive: 3.66 µM [cytotoxic, full curve] | inconclusive: 2.82 µM [cytotoxic, full curve] | inconclusive: 5.01 µM [cytotoxic, full curve]
15 | N[C@@H](CSCCCO)C(=O)O | inconclusive: 0.0021 µM [cytotoxic, full curve, poor fit] | inconclusive: 0.0026 µM [cytotoxic, full curve, poor fit] | – | inconclusive: 4.47 µM [cytotoxic, partial curve]
16 | COc1cc(C)nc(-n2nc(C)cc2OC)n1 | inactive | inconclusive: 8.41 µM [cytotoxic, partial curve, poor fit] | – | inconclusive: 29.1 µM [cytotoxic, single point]
17 | COc1cc2c3c(n(CCCN4CCOCC4)c(=O)c2cc1OC)-c1cc2c(cc1C3=O)OCO2 | inconclusive: 0.0525 µM [cytotoxic, full curve] | inconclusive: 0.0468 µM [cytotoxic, full curve] | – | inconclusive: 6.31 µM [cytotoxic, partial curve, poor fit]
18 | O=C1c2cccc(O)c2C(=O)c2c(O)cccc21 | inactive | inconclusive: 33.5 µM [cytotoxic, single point] | – | inactive
19 | CCC(=O)O[C@]1(C(=O)CO)CC[C@H]2[C@@H]3CCC4=CC(=O)CC[C@]4(C)[C@H]3CC[C@@]21C | inconclusive: 37.2 µM [cytotoxic, single point] | inconclusive: 18.6 µM [cytotoxic, partial curve] | – | inactive
20 | N#CCC1(n2cc(-c3ncnc4[nH]ccc34)cn2)CN(C2CCN(C(=O)c3ccnc(C(F)(F)F)c3F)CC2)C1 | inconclusive: 14.8 µM [cytotoxic, partial curve] | inconclusive: 18.6 µM [cytotoxic, partial curve] | – | inconclusive: 25.1 µM [cytotoxic, partial curve, poor fit]
21 | Cc1ccc(C(=O)Oc2ccc(C(O)CNC(C)(C)C)cc2OC(=O)c2ccc(C)cc2)cc1 (centres undefined) | inconclusive: 2.66 µM [cytotoxic, partial curve, poor fit] | inconclusive: 15 µM [cytotoxic, partial curve] | – | inconclusive: 23.1 µM [cytotoxic, single point]
22 | CCCCOc1ccc(OCCCN2CCOCC2)cc1 | inconclusive: 13.3 µM [cytotoxic, partial curve] | inconclusive: 15 µM [cytotoxic, partial curve] | – | inconclusive: 7.31 µM [cytotoxic, partial curve, poor fit]
23 | CNS(=O)(=O)c1ccc2c(c1)/C(=C/c1[nH]c3c(c1CCCN1CCN(C)CC1)CCCC3)C(=O)N2 | active: 0.186 µM | active: 0.332 µM | – | inconclusive: 31.6 µM [cytotoxic, single point]
24 | O=C(c1ccc(/C=C/c2n[nH]c3ccccc23)cc1)N1CCNCC1 | inconclusive: 0.105 µM [cytotoxic, full curve] | inconclusive: 0.263 µM [cytotoxic, full curve] | – | inconclusive: 8.91 µM [cytotoxic, partial curve]
25 | CCc1nn(CCCN2CCN(c3cccc(Cl)c3)CC2)c(=O)n1CCOc1ccccc1 | inconclusive: 11.9 µM [cytotoxic, partial curve, poor fit] | inconclusive: 11.9 µM [cytotoxic, partial curve, poor fit] | – | inconclusive: 23.1 µM [cytotoxic, partial curve, poor fit]

— PubChem BioAssay (NCATS)
